The RNAGym collection of RNA variant scans (doi:10.1101/gad.245936.114)
This sample is rich in variants without activity.

B1: tRNA (parent)
chain: CUCUCGGUAGCCAAGUUGGUUUAAGGCGCAAGACUUUAAUUUAUCACUACGAAAUCUUGAGAUCGGGCGUUCGACUCGCCCCCGGGAGAUUUUUUCCUCGAGCAA

Variants of: B1
Experiment: nonsense suppression (GFP-seq) (ratio to wild type); higher = more function; SUP4oc tRNA, yeast GFP reporter sort-seq
Outline: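 Each variant's nonsense suppression (GFPSEQ) is a cell-share-weighted bin median GFP/RFP relative to the unmutated parent tRNA. Yeast with genome-integrated tRNA variants from a ~3% random-mutation library, a galactose-driven GFP ochre reporter and RFP were grown in raffinose/galactose medium with 80 mg/L adenine, then sorted into GFP/RFP bins for Illumina sequencing. Variants needed ≥100 reads and ≥30 cells.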

Variant	nonsense suppression
C29U G86C	0.0331
C29U G88U	≤ 0.026
C29U U35A C56G G84A	≤ 0.026
C29U U35C	0.0545
C29U U35C G88U A89G	≤ 0.026
C29U U55A	≤ 0.026
C29U U55G G84C	≤ 0.026
C29U U58G	≤ 0.026
C29U U58G G88U	≤ 0.026
C29U U63C G85A	0.849
C29U U70C G78C	≤ 0.026
A30C A31C A62U	≤ 0.026
A30C A54C	≤ 0.026
A30C A54C G73U	≤ 0.026
A30C A54U	≤ 0.026
A30C A60U U71C	≤ 0.026
A30C A74U	≤ 0.026
A30C A87C	≤ 0.026
A30C A87G	≤ 0.026
A30C C34G	≤ 0.026
A30C C34G C75G	≤ 0.026
A30C C56G C83G G86U	≤ 0.026
A30C C72G	≤ 0.026
A30C C77A	≤ 0.026

Variant	nonsense suppression
A30C C80G	≤ 0.026
A30C C81G	≤ 0.026
A30C C83A A89G	≤ 0.026
A30C G32C G67U C72A	≤ 0.026
A30C G32C G84C	≤ 0.026
A30C G32U G84C	≤ 0.026
A30C G61C	≤ 0.026
A30C G61U U63G C68U	≤ 0.026
A30C G65A G66C C72A G84C A87G	≤ 0.026
A30C G67A	≤ 0.026
A30C G88A	≤ 0.026
A30C U35G G69A C81G C82U	≤ 0.026
A30C U55A G65C	≤ 0.026
A30C U55G	≤ 0.026
A30C U55G G59A	≤ 0.026
A30C U57A A60G C68A A89U	≤ 0.026
A30C U57C U70G	≤ 0.026
A30C U57C U71A G78U	≤ 0.026
A30C U57G	≤ 0.026
A30C U57G A60C	≤ 0.026
A30C U57G U71C C82A	≤ 0.026
A30C U70A	≤ 0.026
A30C U70C	≤ 0.026
A30C U70C G84U	≤ 0.026

Variant	nonsense suppression
A30C U71G	≤ 0.026
A30C U76G	≤ 0.026
A30G A31G A60U	0.726
A30G A31G C81U	≤ 0.026
A30G A31U G73U	≤ 0.026
A30G A54U	1.2
A30G A54U A62C	≤ 0.026
A30G C34G U55G G69C C79A	≤ 0.026
A30G C56A	≤ 0.026
A30G C56A G67U	≤ 0.026
A30G C64U	0.0605
A30G C72G	0.0409
A30G C75A G78A	≤ 0.026
A30G C77A C80G	≤ 0.026
A30G C77A G78A	≤ 0.026
A30G C77G	≤ 0.026
A30G C79A	≤ 0.026
A30G C83A	≤ 0.026
A30G G32A A54C U70C G85U	≤ 0.026
A30G G32C U70C	≤ 0.026
A30G G32U G88C	≤ 0.026
A30G G32U U57A G88A	≤ 0.026
A30G G59A	≤ 0.026
A30G G61C C64A	≤ 0.026

Variant	nonsense suppression
A30G G65C	≤ 0.026
A30G G67U C72U	≤ 0.026
A30G G69C	≤ 0.026
A30G G73A C75A	0.318
A30G G78A	0.101
A30G G84C G88U	≤ 0.026
A30G U35A	≤ 0.026
A30G U35A C72G G78C G88C	≤ 0.026
A30G U35C U55G G67C G85A	≤ 0.026
A30G U35G U57C	≤ 0.026
A30G U55G U63G C64A	≤ 0.026
A30G U57A	≤ 0.026
A30G U57C U63G G85A	≤ 0.026
A30G U63A G69C C79A	≤ 0.026
A30G U70C G78A	≤ 0.026
A30U A31U	0.035
A30U A33C U57G C64A G65C	≤ 0.026
A30U A33U U76G	≤ 0.026
A30U A54C U70G G88A	≤ 0.026
A30U A60C	≤ 0.026
A30U A62C G65A U76G C82A A89G	≤ 0.026
A30U A62G C81G	≤ 0.026
A30U A62G G78C A89U	≤ 0.026
A30U A62U U71A	≤ 0.026

Variant	nonsense suppression
A30U A74U	0.0497
A30U C34A A87U	≤ 0.026
A30U C34G U70G	≤ 0.026
A30U C34U	≤ 0.026
A30U C56A	≤ 0.026
A30U C56G	≤ 0.026
A30U C56G G61A G67C	≤ 0.026
A30U C64A	≤ 0.026
A30U C72U G85U	≤ 0.026
A30U C77U	≤ 0.026
A30U C79U	0.144
A30U C82G	≤ 0.026
A30U G32A	≤ 0.026
A30U G32U	≤ 0.026
A30U G61C A62U	≤ 0.026
A30U G61C G88A	≤ 0.026
A30U G65C C72A C81U	≤ 0.026
A30U G65U	≤ 0.026
A30U G66C	≤ 0.026
A30U G66C C72U A87G	≤ 0.026
A30U G66C C82G	≤ 0.026
A30U G67A G73U A74G C81A	≤ 0.026
A30U G69U G88C	≤ 0.026
A30U G78A	≤ 0.026

Variant	nonsense suppression
A30U G78U A89C	≤ 0.026
A30U G84U	0.423
A30U G85A	0.52
A30U G88U	≤ 0.026
A30U U35C	≤ 0.026
A30U U35G U57G	≤ 0.026
A30U U55A	≤ 0.026
A30U U55A A74C	≤ 0.026
A30U U55G	≤ 0.026
A30U U55G A62C A74C C75A	≤ 0.026
A30U U57C U63A G66C	≤ 0.026
A30U U57G U71G	≤ 0.026
A30U U58A G65C C80A	≤ 0.026
A30U U63G	≤ 0.026
A30U U70C C82G	≤ 0.026
A30U U76C C79U	≤ 0.026
A31C A33U	≤ 0.026
A31C A54C	≤ 0.026
A31C A54U U55C G66U G69A	≤ 0.026
A31C A60C	≤ 0.026
A31C A74C C80G	≤ 0.026
A31C C34A	≤ 0.026
A31C C34U	≤ 0.026
A31C C34U U58A G66A G88C	≤ 0.026

Variant	nonsense suppression
A31C C56A C81G	≤ 0.026
A31C C56G	≤ 0.026
A31C C64A G69A G85C	≤ 0.026
A31C C64U	≤ 0.026
A31C C72G G78U	≤ 0.026
A31C C72U C75U	≤ 0.026
A31C C77G	≤ 0.026
A31C C79G	≤ 0.026
A31C C80A	≤ 0.026
A31C C80U	≤ 0.026
A31C C81A	≤ 0.026
A31C C82A G88A	≤ 0.026
A31C G32A U57C C79A	≤ 0.026
A31C G32U	≤ 0.026
A31C G59C	≤ 0.026
A31C G67A G88C	≤ 0.026
A31C G84A	≤ 0.026
A31C G85A	≤ 0.026
A31C G85C	≤ 0.026
A31C G88A	≤ 0.026
A31C G88C	≤ 0.026
A31C U55A A60C A74U	≤ 0.026
A31C U55C C82U	≤ 0.026
